According to paper PMC3699067 (Human Molecular Genetics, 2013):

Target: the molecule itself
Assay: cross-linking

B1: TDP-43([…]), untagged C-terminal deletion fragment (domain or fragment)
chain: not shown
B1 was tested, and the “stoichiometry N” value was 2.
